# In the supplement of paper PMC10338343:
# ± gives the standard deviation. Only a part is listed here, and it is no random draw.
# System: MIWI (PIWIL1) piRISC loaded with piRNA #1 (30 nt)
# Test: pre-steady-state target cleavage rate (min^-1); MIWI and MILI are mouse PIWI proteins and EfPiwi is from a freshwater sponge; tags in brackets are library labels; higher = faster piRNA-guided slicing of the target
# Conditions: guide: piRNA #1 5'p-UGAGGUAGUAGGUUGUAUAGUAUCCAGAGG; auxiliary factor: 500 nM mouse GTSF1
# In short: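 Cleave-'n-Seq: a transcribed, DNA-blocked target RNA library (0.1 nM) was mixed with 1 nM active affinity-purified piRISC carrying one synthetic guide, with or without 500 nM GTSF1 partner protein, in HEPES–potassium acetate buffer at 33 °C for 0–8 or 0–960 min. Uncleaved targets were sequenced and normalised to depth and to weakly complementary targets. Three trials were pooled, and k3 was capped at 0.0001 min^-1. The pre-steady-state cleavage rate came from a burst-and-steady-state fit.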
row,Sequence,pre-steady-state target cleavage rate
1,GCUCUGGAUACUAUACAACAUACUACCUCA,1.47 ± 0.089
2,GGAGACCAAACUAUACUACCUACUACCUCA,0.185 ± 0.03
3,GGAGACCUAUGAAUACAACCUUGAACCUCA,< 0.0001
4,GGUCUGGAUACUAUACAACCUACUACCUUCA,1.13 ± 0.083
5,GGAGUGGAUACUAUAAAACCUACUACCUCA,1.53 ± 0.092
6,GGAGUGGAUACUAUACUACCUUCUACCUCA,0.226 ± 0.021
7,GCUCUGGAUACAAUACUACCUACUACCUCA,1.08 ± 0.075
8,GGAGACGAUACUAAACAACCUACAACCUCA,0.692 ± 0.057
9,GCUCUGGAUACUAUACAACCUACUACCACA,1.95 ± 0.13
10,GGUGUGGAUACUAAACAACCUACUACCUCA,1.68 ± 0.094
11,GCUCUGGAUACUAUACAACCUACUACCUGA,1.04 ± 0.14
12,GGAGACCAUACUAAACAACCUACUACCUCA,1.25 ± 0.11
13,GGAGACGAUACUAUUCAACCUACUUCCUCA,0.197 ± 0.039
14,CCUCUGGAUACUAUACAACGUACUACCUGA,0.26 ± 0.041
15,GGAGACCAUACUUUACAACCUAGUACCUCA,0.508 ± 0.045
16,CGUCUGGAUACUAUACAACCUACAACCUCA,0.48 ± 0.047
17,GGUCUGGAUACAAUACAACCUAGUACCUCA,0.562 ± 0.054
18,GGUCUGGAUACUUUACAACCUACUUCCUCA,0.0036 ± 0.0016
19,GGAGAGCAUACAAUACAACCUACUACCUCA,1.16 ± 0.11
20,GGAGACGAUACUAUACAACCUACUACCACA,1.15 ± 0.063

row,Sequence,pre-steady-state target cleavage rate
1,GCUCUGGAUACUAUACAACCUACUUGGAGA [g7:g29:cont:t1A],0.0788 ± 0.02
2,GGUCUGGAUAGUUUACAACCUACUACCUCA,0.928 ± 0.076
3,GGAGUGGAUACUAUACAAGCUAGUACCUCA,0.243 ± 0.035
4,GCUCUGGAUACAAUUCAACCUACUACCUCA,1.3 ± 0.075
5,GGAGACCUUACUAUACUACCUACAACCUCA,0.0791 ± 0.013
6,CCUCUGGAUACUAUACAACCUACUACCUACA,1.79 ± 0.096
7,GGACUGGAUAGUAUUCAACCUACUACCUCA,0.572 ± 0.063
8,GCUCUGGAUACUUUACAACCUAGUACCUCA,0.458 ± 0.062
9,GGAGACCAUACUAUACAACCUACUACCGUCA,0.82 ± 0.05
10,GGAGACCAUACUAUACAACCUACAACGUCA,0.365 ± 0.056
11,GGAGACCUAUGUAUACAACCUACUACCUCG [g2:g19:cont:t1G],0.224 ± 0.026
12,GGACUGGAUACUAUACAACCUACUAUCUCA,0.789 ± 0.087
13,GGAGACGAUACUUUACAUCCUACUACCUCA,1.14 ± 0.076
14,GGAGACGUUUCUAUACAACCUACUACCUCA,1.18 ± 0.11
15,GGAGACGAUUCUAUUCAACCUACUACCUCA,1.6 ± 0.13
16,GGUCUGGAUACUAUACAACCUAGAUGGAGA [g9:g28:cont:t1A],< 0.0001
17,GGUCUGGAUACAAAACAACCUACUACCUCA,0.885 ± 0.11
18,GGUCUGGAUACUAUACAUCCUUCUACCUCA,0.287 ± 0.02
19,GGAGACCUAUCUAUACAACAUACUACCUCA,0.21 ± 0.029
20,CCUCUGGAUAGUAUACUACCUACUACCUCA,0.115 ± 0.022
